# Source: the supplement of paper PMC9135407
# Several values for one entry are separate records, joined by “and”; a condition that tells them apart may be missing. Equal values may be shown once. Where a name gives a salt, the structure may show the parent alone. About 620 (11%) of roughly 5,800 compounds showed activity.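 How the source made its calls: active = score above a cut-off or among the top three wells of a plate; in these data no inactive exceeds 0.85.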 This is a selection; strong and weak results do not stand in their true shares.
# Tested on: primary human hepatic stellate cells (donor 1)
# Assay: scaled lipid accumulation score (0 = DMSO-like, 1 = nortriptyline-like); higher = stronger HSC inactivation (lipid re-accumulation), active = hit call of the paper
# Details: 48 h
# [1] = library stock concentration: 400 uM
# [2] = library stock concentration: 2 mM
# [3] = library stock concentration: 10 mM
# [4] = library stock concentration: 3.33 mM
# [5] = library stock concentration: 80 uM
# [6] = library stock concentration: 1 mM
compound,measurement,setting,value
NC(=O)c1ccc2[nH]ccc2c1,scaled lipid accumulation score,[1],inactive: ≤ -0.005
same,scaled lipid accumulation score,[2],inactive: ≤ -0.005
same,scaled lipid accumulation score,[3],inactive: ≤ -0.055 and inactive: ≤ -0.001 and inactive: ≤ -0.005
NC[C@@H]1O[C@H](O[C@H]2[C@@H](O)[C@H](O[C@@H]3[C@@H](O)[C@H](N)C[C@H](N)[C@H]3O[C@H]3O[C@H](CO)[C@@H](O)[C@H](O)[C@H]3N)O[C@@H]2CO)[C@H](N)[C@@H](O)[C@@H]1O [Paromomycin sulfate],scaled lipid accumulation score,,inactive: ≤ 0
same,scaled lipid accumulation score,[3],inactive: ≤ 0 and inactive: ≤ -0.027
Nc1nc(CC(=O)Nc2ccc(CCNC[C@H](O)c3ccccc3)cc2)cs1 [Mirabegron],scaled lipid accumulation score,[4],inactive: ≤ 0
same,scaled lipid accumulation score,[3],inactive: 0.331
CC[C@]1(O)C[C@H]2CN(CCc3c([nH]c4ccccc34)[C@@](C(=O)OC)(c3cc4c(cc3OC)N(C=O)[C@H]3[C@@](O)(C(=O)OC)[C@H](OC(C)=O)[C@]5(CC)C=CCN6CC[C@]43[C@@H]65)C2)C1 [Vincristine],scaled lipid accumulation score,[4],inactive: 0.004
same,scaled lipid accumulation score,[3],inactive: 0.512
COc1ccccc1OCC(O)CO (stereo not given) [Guaifenesin],scaled lipid accumulation score,,inactive: ≤ 0
same,scaled lipid accumulation score,[4],inactive: ≤ 0
same,scaled lipid accumulation score,[3],inactive: 0.084 and inactive: ≤ 0
O=c1cc(N2CCNCC2)oc2c(-c3ccccc3)cccc12,scaled lipid accumulation score,[3],active: 1.28
Cc1cc(=O)[nH]c(=S)[nH]1 [Methylthiouracil],scaled lipid accumulation score,[4],inactive: ≤ 0
same,scaled lipid accumulation score,[3],inactive: ≤ 0 and inactive: ≤ -0.001
Cc1ccc(F)c(NC(=O)Nc2ccc(-c3cccc4[nH]nc(N)c34)cc2)c1,scaled lipid accumulation score,[3],active: 1.08
CC(=O)[C@H]1CC[C@H]2[C@@H]3C=CC4=CC(=O)CC[C@@]4(C)[C@@H]3CC[C@]12C [Dydrogesterone],scaled lipid accumulation score,,inactive: 0.003
same,scaled lipid accumulation score,[4],inactive: ≤ 0
same,scaled lipid accumulation score,[3],inactive: ≤ -0.001
CN1CCC(=C2c3ccccc3CCc3sccc32)CC1.O=C(O)/C=C\C(=O)O [Pizotyline],scaled lipid accumulation score,[3],active: 1.2
C(=C/CCNC)(/c1c2cccc1)\c3c(cccc3)CC2.Cl [Nortriptyline hydrochloride],scaled lipid accumulation score,[3],active: 1.04
C=CC(=O)Nc1cc(-n2c(=O)ccc3cnc4ccc(-c5ccc(NS(C)(=O)=O)cc5)cc4c32)ccc1C,scaled lipid accumulation score,[5],inactive: ≤ -0.001
same,scaled lipid accumulation score,[1],inactive: ≤ -0.001
same,scaled lipid accumulation score,[2],inactive: 0.003
same,scaled lipid accumulation score,[3],inactive: 0.06
CN1[C@@H]2CC[C@H]1C[C@@H](OC(=O)c1c[nH]c3ccccc13)C2 [Tropisetron],scaled lipid accumulation score,[4],inactive: 0.308
same,scaled lipid accumulation score,[3],inactive: 0.518
CN1[C@@H]2CC[C@H]1C[C@@H](OC(=O)c1c[nH]c3ccccc13)C2 [Tropisetron hydrochloride],scaled lipid accumulation score,[3],inactive: ≤ 0
CN1[C@@H]2CC[C@H]1C[C@@H](OC(=O)c1c[nH]c3ccccc13)C2,scaled lipid accumulation score,[3],inactive: ≤ 0 and inactive: 0.539
CN1[C@@H]2CC[C@H]1C[C@@H](OC(=O)c1c[nH]c3ccccc13)C2 [Tropisetron HCl],scaled lipid accumulation score,,inactive: 0.639
same,scaled lipid accumulation score,library stock concentration: 7 mM,inactive: 0.312
CCCCC[C@H](O)/C=C/[C@H]1C(=O)C[C@H](O)[C@@H]1C/C=C\CCCC(=O)NC(CO)CO [Prostaglandin D2 serinol amide],scaled lipid accumulation score,[6],inactive: ≤ 0
N=C(N)SCCC[C@H](N)C(=O)O [Thioarginine (hydrobromide)],scaled lipid accumulation score,[6],inactive: ≤ 0
Cc1cccc(C)c1OCC(C)N (stereo not given) [Mexiletine HCl],scaled lipid accumulation score,[4],inactive: ≤ 0
same,scaled lipid accumulation score,[3],inactive: 0.025
Cc1cccc(C)c1OCC(C)N (stereo not given) [Mexiletine hydrochloride],scaled lipid accumulation score,,inactive: 0.538
same,scaled lipid accumulation score,library stock concentration: 9.3 mM,inactive: 0.045
same,scaled lipid accumulation score,[3],inactive: 0.226
Cc1cccc(C)c1OCC(C)N (stereo not given) [Mexiletene hydrochloride],scaled lipid accumulation score,[3],inactive: 0.726
CN1CCC(Nc2ncc3ncnc(Nc4ccc(F)c(Cl)c4)c3n2)CC1.Cl.Cl [BIBX 1382 dihydrochloride],scaled lipid accumulation score,[3],active: 1.61
CN(C(=O)C(Cl)Cl)c1ccc(OC(=O)c2ccco2)cc1 [Diloxanide furoate],scaled lipid accumulation score,,inactive: ≤ 0
same,scaled lipid accumulation score,library stock concentration: 6.1 mM,inactive: ≤ 0
CCc1cc(Nc2nccc(-c3c(-c4ccc(OC)c(C(=O)Nc5c(F)cccc5F)c4)nc4ccccn34)n2)c(OC)cc1N1CCC(N2CCN(S(C)(=O)=O)CC2)CC1,scaled lipid accumulation score,[5],inactive: ≤ -0.009
same,scaled lipid accumulation score,[1],inactive: 0.004
same,scaled lipid accumulation score,[2],inactive: 0.023
same,scaled lipid accumulation score,[4],inactive: ≤ 0
same,scaled lipid accumulation score,[3],inactive: ≤ 0 and inactive: 0.009
O=C1c2ccc(O)c(O)c2C(=O)c2c(O)ccc(O)c21 [Quinalizarin],scaled lipid accumulation score,[3],inactive: ≤ 0
COc1cc(/C=C/C(N)=O)cc(OC)c1OC,scaled lipid accumulation score,[3],inactive: 0.006
OC(CCCN1CCN(c2ncc(F)cn2)CC1)c1ccc(F)cc1 (stereo not given),scaled lipid accumulation score,[3],inactive: 0.038
"Nc1ccn([C@H]2CC[C@@H](CO)O2)c(=O)n1 [2',3'-dideoxycytidine]",scaled lipid accumulation score,[3],inactive: 0.396
Nc1ccn([C@H]2CC[C@@H](CO)O2)c(=O)n1 [Zalcitabine],scaled lipid accumulation score,,inactive: ≤ 0
same,scaled lipid accumulation score,[4],inactive: ≤ 0
same,scaled lipid accumulation score,[3],inactive: ≤ 0
Nc1ccn([C@H]2CC[C@@H](CO)O2)c(=O)n1,scaled lipid accumulation score,[3],inactive: ≤ 0
"Nc1ccn([C@H]2CC[C@@H](CO)O2)c(=O)n1 [2',3' - dideoxycytidine]",scaled lipid accumulation score,library stock concentration: 9.5 mM,inactive: ≤ 0
CCCCCCCCCCCCCCC[C@H](O)[C@H](N)CO (racemic) [DL-erythro-Dihydrosphingosine],scaled lipid accumulation score,[3],inactive: ≤ -0.07
C(=C/CCN(C)C)(/c1c2cccc1)\c3c(cccc3)CC2.Cl [Amitriptyline hydrochloride],scaled lipid accumulation score,[3],active: 1.11
CN(C)CCOC(C)(c1ccccc1)c1ccccn1 (stereo not given) [Doxylamine Succinate],scaled lipid accumulation score,[4],inactive: ≤ 0
same,scaled lipid accumulation score,[3],inactive: 0.086
CN(C)CCOC(C)(c1ccccc1)c1ccccn1 (stereo not given) [Doxylamine succinate],scaled lipid accumulation score,,inactive: 0.19
same,scaled lipid accumulation score,library stock concentration: 5.1 mM,inactive: 0.007
same,scaled lipid accumulation score,[3],inactive: ≤ 0 and inactive: ≤ -0.005
CN(C)CCOC(C)(c1ccccc1)c1ccccn1 (stereo not given),scaled lipid accumulation score,[3],inactive: ≤ 0
C=CCNC(N)=S,scaled lipid accumulation score,[3],inactive: ≤ 0
C=CCNC(N)=S [Allylthiourea],scaled lipid accumulation score,[4],inactive: ≤ 0
same,scaled lipid accumulation score,[3],inactive: ≤ -0.001
CNC(=O)c1cccc(-c2ccc3c(N4CCOC[C@@H]4C)nc(N4CCOC[C@@H]4C)nc3n2)c1,scaled lipid accumulation score,[5],inactive: 0.009
same,scaled lipid accumulation score,[1],inactive: ≤ -0.001
same,scaled lipid accumulation score,[2],inactive: 0.064
same,scaled lipid accumulation score,[4],inactive: 0.037
same,scaled lipid accumulation score,[3],inactive: ≤ 0 and inactive: ≤ -0.001
COc1cccc(-c2cc(=O)c3ccccc3o2)c1N,scaled lipid accumulation score,[6],inactive: ≤ 0
same,scaled lipid accumulation score,[4],inactive: ≤ 0
same,scaled lipid accumulation score,[3],inactive: ≤ 0 and inactive: ≤ -0.006
same,scaled lipid accumulation score,library stock concentration: 18.7 mM,inactive: 0.064
C[C@@H](O)[C@H]1C(=O)N2C(C(=O)O)=C(S[C@@H]3CN[C@H](CNS(N)(=O)=O)C3)[C@H](C)[C@H]12 [Doripenem Hydrate],scaled lipid accumulation score,[4],inactive: ≤ 0
same,scaled lipid accumulation score,[3],inactive: 0.073
Oc1c(I)cc(Cl)c2cccnc12 [Clioquinol],scaled lipid accumulation score,,inactive: ≤ 0
CC(C)(C#N)c1cc(Cn2cncn2)cc(C(C)(C)C#N)c1,scaled lipid accumulation score,[3],inactive: ≤ 0
CC(C)(C#N)c1cc(Cn2cncn2)cc(C(C)(C)C#N)c1 [Anastrozole],scaled lipid accumulation score,[4],inactive: 0.046
same,scaled lipid accumulation score,library stock concentration: 6.8 mM,inactive: ≤ -0.006
same,scaled lipid accumulation score,[3],inactive: ≤ 0
"COc1cc2nccc(Oc3ccc(NC(=O)Nc4cc(C)on4)c(Cl)c3)c2cc1OC [AV951 (KRN951, Tivozanib) (10 mM)]",scaled lipid accumulation score,[3],inactive: 0.775
COc1cc2nccc(Oc3ccc(NC(=O)Nc4cc(C)on4)c(Cl)c3)c2cc1OC [VEGFR Tyrosine Kinase Inhibitor IV],scaled lipid accumulation score,[4],inactive: ≤ 0
COc1cc2nccc(Oc3ccc(NC(=O)Nc4cc(C)on4)c(Cl)c3)c2cc1OC [Tivozanib (AV-951)],scaled lipid accumulation score,[4],inactive: 0.068
same,scaled lipid accumulation score,[3],inactive: 0.098
"COc1cc2nccc(Oc3ccc(NC(=O)Nc4cc(C)on4)c(Cl)c3)c2cc1OC [AV951 (KRN951, Tivozanib) (2 mM)]",scaled lipid accumulation score,[2],inactive: ≤ -0.005
COc1cc2nccc(Oc3ccc(NC(=O)Nc4cc(C)on4)c(Cl)c3)c2cc1OC,scaled lipid accumulation score,[5],inactive: 0.016
same,scaled lipid accumulation score,[1],inactive: ≤ 0
same,scaled lipid accumulation score,[2],inactive: 0.009
same,scaled lipid accumulation score,[3],inactive: 0.246
"COc1cc2nccc(Oc3ccc(NC(=O)Nc4cc(C)on4)c(Cl)c3)c2cc1OC [AV951 (KRN951, Tivozanib) (0.4 mM)]",scaled lipid accumulation score,[1],inactive: ≤ -0.005
CN(CC(=O)N(Cc1ccc(C2CCCCC2)cc1)c1ccc(C(=O)O)cc1)S(=O)(=O)c1c(F)c(F)c(F)c(F)c1F,scaled lipid accumulation score,[4],inactive: ≤ -0.009
same,scaled lipid accumulation score,[3],inactive: 0.483
OC(CNCC(O)C1CCc2cc(F)ccc2O1)C1CCc2cc(F)ccc2O1 (stereo not given) [Nebivolol],scaled lipid accumulation score,[4],inactive: 0.769
same,scaled lipid accumulation score,[3],inactive: ≤ 0
CC(=O)NS(=O)(=O)c1ccc(NC(=O)c2ccccc2C(=O)O)cc1,scaled lipid accumulation score,[3],inactive: ≤ 0
CCCCCCCCCCCCCCCCOCC(CO)OC (stereo not given) [1-Hexadecyl-2-O-methyl-glycerol],scaled lipid accumulation score,[6],inactive: 0.003
O=C(CCc1ccc(O)cc1)c1c(O)cc(O)cc1O [Phloretin],scaled lipid accumulation score,[4],inactive: ≤ 0
same,scaled lipid accumulation score,[3],inactive: ≤ 0
CC[C@H](C)[C@H](N)C1=N[C@H](C(=O)N[C@@H](CC(C)C)C(=O)N[C@H](CCC(=O)O)C(=O)N[C@H](C(=O)N[C@H]2CCCCNC(=O)[C@H](CC(N)=O)NC(=O)[C@@H](CC(=O)O)NC(=O)[C@H](Cc3cnc[nH]3)NC(=O)[C@@H](Cc3ccccc3)NC(=O)[C@H]([C@@H](C)CC)NC(=O)[C@@H](CCCN)NC2=O)[C@@H](C)CC)CS1 [Bacitracin],scaled lipid accumulation score,,inactive: ≤ 0
same,scaled lipid accumulation score,library stock concentration: 1.4 mM,inactive: 0.019
same,scaled lipid accumulation score,[4],inactive: ≤ 0
same,scaled lipid accumulation score,[3],inactive: ≤ -0.001 and inactive: ≤ 0
